# Source: PubChem BioAssay AID1477 (National Center for Advancing Translational Sciences (NCATS), 2009)
# Hit rate of the full screen: of about 230,000 compounds, fewer than 10 were called active. This list was built around the results that the source calls inconclusive (neither active nor inactive); the mix of calls is not that of the screen. Calls come from the whole dose curve; as a rule, active = well fitted curve in the direction sought with a large enough effect; inconclusive = small, poorly fitted or top-dose-only effect, or effect the other way, or another doubt; inactive = no such curve, though single readings can be large or run the other way. Potencies of inconclusive entries are left out as doubtful fits.
# Molecular target: Runt-related transcription factor 1 (Homo sapiens) + Core-binding factor subunit beta (Homo sapiens) (UniProt Q01196+Q13951)
# Experiment: qHTS Assay for Compounds Blocking the Interaction Between CBF-beta and RUNX1 for the Treatment of Acute Myeloid Leukemia
# Conditions: AlphaScreen CBFb-His/RUNX1-biotin binding, biochemical; series mostly up to 59.8 µM
# In short: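 His-tagged CBF-beta and biotinylated RUNX1 (30 nM each) were premixed 20 min at room temperature, exposed to compound for 15 min, then given nickel-chelate and streptavidin AlphaScreen beads (50 ng each). After 90 min, AlphaScreen signal was read.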
# Sequence of UniProt Q01196 (Q01196 whole entry, looked up): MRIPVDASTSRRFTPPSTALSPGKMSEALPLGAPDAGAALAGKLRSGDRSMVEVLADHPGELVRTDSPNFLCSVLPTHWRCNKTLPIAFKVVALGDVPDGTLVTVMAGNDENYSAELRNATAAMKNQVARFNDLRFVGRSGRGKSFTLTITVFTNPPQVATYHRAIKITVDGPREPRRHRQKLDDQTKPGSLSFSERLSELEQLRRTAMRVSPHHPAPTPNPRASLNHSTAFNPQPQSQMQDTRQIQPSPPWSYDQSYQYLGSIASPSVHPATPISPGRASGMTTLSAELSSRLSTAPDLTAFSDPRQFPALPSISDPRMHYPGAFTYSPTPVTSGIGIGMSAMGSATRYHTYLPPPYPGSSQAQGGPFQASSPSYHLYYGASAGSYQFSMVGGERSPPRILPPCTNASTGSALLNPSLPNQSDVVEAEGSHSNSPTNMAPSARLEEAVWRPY
# Sequence of UniProt Q01196 (Q13951 whole entry, looked up): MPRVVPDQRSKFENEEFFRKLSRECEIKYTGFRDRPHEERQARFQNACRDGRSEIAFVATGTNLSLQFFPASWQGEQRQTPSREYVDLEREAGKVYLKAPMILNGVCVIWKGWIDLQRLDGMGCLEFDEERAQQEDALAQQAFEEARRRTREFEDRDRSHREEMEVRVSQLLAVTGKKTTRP
row,Compound,Potency
1,O=[N+]([O-])c1ccccc1NCc1ccccc1Cl,"inconclusive [inhibitor, single point]"
2,Cc1ccc(C)c(OCCCC(C)(C)C(=O)O)c1,"inconclusive [activator, single point]"
3,CCN(c1cccc(C)c1)C(C(=O)Nc1ccc(OC)cc1)c1cc2c(cc1[N+](=O)[O-])OCO2 (stereo unspecified),"inconclusive [inhibitor, partial curve]"
4,COc1cccc([C@@H]2Oc3ccc(OC)cc3C[C@H]2OC(=O)NS(=O)(=O)c2ccc(C)cc2)c1,"inconclusive [inhibitor, single point]"
5,O=[N+]([O-])c1ccc(/C=C/C2=NN(c3ccccc3)C(c3ccco3)C2)o1 (stereo unspecified),"inconclusive [inhibitor, partial curve]"
6,COc1ccc(OCCCCOc2ccccc2Cl)cc1,"inconclusive [activator, single point]"
7,Cc1ccsc1/C=N/n1c(=S)[nH]nc(C)c1=O,"inconclusive [inhibitor, single point]"
8,CC(=O)n1nc(-c2ccccc2)nc1NCc1ccc(N(C)C)cc1,"inconclusive [inhibitor, single point]"
9,O=C(Cn1ncc(Cl)c(Cl)c1=O)N1CCN(Cc2ccccc2)CC1,"inconclusive [inhibitor, single point]"
10,CCOC(=O)C1=C(C)NC(SCC(=O)OC)=C(C#N)C1c1ccc(C(=O)OC)cc1 (stereo unspecified),"inconclusive [activator, partial curve]"
11,COc1cc2c(=O)n(CC3CCCO3)c(=O)n(CC(=O)Nc3ccc(F)cc3F)c2cc1OC (stereo unspecified),"inconclusive [inhibitor, single point]"
12,COc1cc(OC)cc(C(=O)Nc2cccc(C(C)=O)c2)c1,inactive
13,Cc1nn(-c2ccccc2)c2c1C(=O)N(c1ccccc1)C(=O)C(C)(C)C2,inactive
14,COc1ccc(C(=O)OCC(=O)NC(=O)NC(C)C)cc1OC,"inconclusive [activator, single point]"
15,Cc1ccc2[nH]c3c(c2c1)CN(C(=O)CN1c2ccc(F)cc2CCC1C)CC3 (stereo unspecified),"inconclusive [inhibitor, single point]"
16,COc1cccc(/C=N/Nc2nccnc2Cl)c1O,"inconclusive [inhibitor, partial curve]"
17,COc1ccc2[nH]c(=O)cc(C(=O)O)c2c1,"inconclusive [inhibitor, single point]"
18,CC(c1ccccn1)N(CCN(C)C)C(=S)Nc1ccccc1F (stereo unspecified),"inconclusive [inhibitor, partial curve]"
19,Cc1ccc(C(=O)COC(=O)c2ccc3c(c2)C(=O)N(c2cccc4ncccc24)C3=O)cc1,"inconclusive [inhibitor, partial curve, poor fit]"
20,C/C(=N\Nc1cccc2cccnc12)c1ccc[nH]1,"inconclusive [inhibitor, partial curve]"
21,CSc1nc(N)c2ncn([C@H]3O[C@H](COP(=O)(O)OP(=O)(O)OP(=O)(O)O)[C@@H](O)[C@@H]3O)c2n1,inactive
22,COc1ccc(-c2nc(-c3ccccc3)no2)c(OC)c1,"inconclusive [activator, single point]"

row,Compound,Potency
1,CN1CCN(c2ncnc3nc[nH]c23)CC1,"inconclusive [activator, single point]"
2,CCOC(=O)C1=C(N)OC2=C(C(=O)CC(C)(C)C2)C1c1ccc(CC)s1 (stereo unspecified),inactive
3,NC(=O)CSCc1nc2ccccc2s1,inactive
4,O=[N+]([O-])c1ccc(N/N=C2/CCCCC2c2ccccn2)c([N+](=O)[O-])c1 (stereo unspecified),"inconclusive [inhibitor, single point]"
5,COc1cccc(C(=O)N2CCOCC2)c1,"inconclusive [activator, single point]"
6,Cc1ccc(NC(=O)c2ccc(OC(=O)c3ccco3)cc2)cc1,inactive
7,CC(C)COC(=O)NCC12C=CC(O1)C1C(=O)N(c3ccc(Cl)cc3)C(=O)C12 (stereo unspecified),inactive
8,C=CCOC(=O)/C(=C\c1ccc(OC)cc1)NC(=O)c1ccco1,inactive
9,O=[N+]([O-])c1cccc(N=Cc2sc3ccccc3c2O)c1,"inconclusive [inhibitor, single point]"
10,Cc1cc(C)c(NC(=O)CN2C(=O)NC(CCc3ccccc3)C2=O)c(C)c1 (stereo unspecified),"inconclusive [inhibitor, single point]"
11,C=CCOc1c(CNc2nccs2)cccc1OCC,inactive
12,Cc1cccc(NCCC(=O)c2ccc([N+](=O)[O-])cc2)c1C,inactive
13,Cc1cc(C)c(S(=O)(=O)n2ccc3ccccc32)c(C)c1,"inconclusive [activator, single point]"
14,CCn1c(=O)c(C(=O)Nc2nc3ccccc3[nH]2)c(O)c2ccccc21,"inconclusive [inhibitor, full curve]"
15,O=C(Nc1nc(-c2ccco2)c(-c2ccco2)s1)C1CCC1,"inconclusive [inhibitor, single point]"
16,COc1cc(O)c(/C=N/NC(=O)c2ccncc2)c(OC)c1[N+](=O)[O-],"inconclusive [inhibitor, partial curve]"
17,CCOc1ccc(C2C(C#N)=C(C)NC3=C2C(=O)c2ccccc23)cc1 (stereo unspecified),"inconclusive [inhibitor, single point]"
18,CCOc1cc(/C=N/N=C2/NC(=O)C(CC(=O)O)S2)ccc1OCc1ccc(Cl)cc1 (stereo unspecified),"inconclusive [inhibitor, single point]"
19,C[C@@H](C(=O)Nc1nc(-c2ccccn2)cs1)N1C(=O)C2CCCCC2C1=O (stereo partly specified),"inconclusive [inhibitor, single point]"
20,Cc1ccc(O)c(N=Cc2cc(Cc3ccccc3)cc([N+](=O)[O-])c2O)c1,"inconclusive [inhibitor, partial curve]"
21,COc1ccccc1N(CC(=O)N/N=C/c1c(O)ccc2ccccc12)S(C)(=O)=O,"inconclusive [inhibitor, single point]"
22,Cc1ccc(CNc2ccc(N3C(=O)CC(C)C3=O)cc2[N+](=O)[O-])cc1 (stereo unspecified),"inconclusive [inhibitor, single point]"

row,Compound,Potency
1,COc1ccc(Cl)cc1Nc1nc(-c2sc(NC(=O)CC(C)C)nc2C)cs1,"inconclusive [inhibitor, single point]"
2,COc1ccccc1CNC(=O)CSc1ccc(Br)cc1,inactive
3,CC1(C)CC(N=c2cc(-c3ccccc3)oc3ccc(Cl)cc23)CC(C)(C)N1,inactive
4,COc1ccc(/C=C/C(=O)Oc2ccc(C)c(C)c2)cc1OC,"inconclusive [activator, partial curve]"
5,O=C(/C=C/c1ccco1)Nc1sc2c(c1C(=O)O)CCC2,"inconclusive [inhibitor, single point]"
6,COc1ccc(NC(=O)/C=C/c2ccccc2)c([N+](=O)[O-])c1,inactive
7,COc1ccc(C(C(O)C(=O)c2c[nH]c3ccccc23)N2CCN(c3ccc(OC)cc3)CC2)cc1 (stereo unspecified),"inconclusive [inhibitor, partial curve]"
8,c1ccc(Cn2nnnc2C(c2ccccc2)N2CCN(c3nc4ccccc4s3)CC2)cc1 (stereo unspecified),inactive
9,COCCOC(=O)c1c(C)oc2ccc(OC(=O)c3ccc4c(c3)OCO4)cc12,"inconclusive [activator, partial curve]"
10,COc1cccc(CNc2ncnc3cc(OC)c(OC)cc23)c1,inactive
11,Brc1cc(Cc2nnc(-c3ccccc3)o2)c(Br)s1,"inconclusive [activator, single point]"
12,O=C(Nc1cccc2ccccc12)c1ccc([N+](=O)[O-])s1,inactive
13,CC[C@H](C)[C@H](NC(=O)[C@H](Cc1ccccc1)NC(=O)[C@H](C)NC(=O)[C@H](CC(=O)O)NC(=O)[C@H](CCCCN)NC(=O)[C@H](CO)NC(=O)[C@@H]1CCCN1C(=O)[C@@H]1CCC(=O)N1)C(=O)NCC(=O)N[C@@H](CC(C)C)C(=O)N[C@@H](CCSC)C(N)=O,inactive
14,CCOc1ccccc1NC(=O)C(Sc1ccccc1)c1ccccc1 (stereo unspecified),"inconclusive [activator, single point]"
15,CCOc1ccc(/C=N/NC(=O)CN2CCCCCCC2)cc1,"inconclusive [inhibitor, single point]"
16,Cc1cc2oc(=O)cc(CN3CCc4ccccc43)c2cc1Cl,"inconclusive [inhibitor, single point]"
17,Cn1nnnc1SC(C(=O)Nc1cccc(C(F)(F)F)c1)c1ccccc1 (stereo unspecified),"inconclusive [activator, partial curve]"
18,Cc1nn(C)c(C)c1NC(=O)c1cc2nc(-c3ccco3)cc(C(F)(F)F)n2n1,inactive
19,Cc1ccc(C(=O)NNC(=O)c2cc3cc4ccccc4nc3s2)cc1,"inconclusive [inhibitor, single point]"
20,COc1cc2nc(/C=C/c3ccc(N(C)C)cc3)sc2cc1SC,"inconclusive [inhibitor, single point]"
21,COc1ccc2cc1Oc1ccc(cc1)CC1c3c(cc(OC)c4c3Oc3cc5c(cc3O4)CCNC5C2)CCN1C (stereo unspecified),"inconclusive [inhibitor, partial curve]"
22,COC(=O)c1ccc(Cn2c(O)c(N=NC(N)=S)c3ccccc32)o1,"inconclusive [inhibitor, single point]"
